Data published in the supplement of paper PMC6135742.
Counter-ions that a name gives are not always drawn. ± gives the standard deviation of the averaged measurements. The full ranking holds about 2,600 compounds; the median of “total cell number (DAPI+ nuclei) relative to DMSO vehicle control” is about -1.4, and the lowest 2% start at about -23. The list shows a part of the results.

Tested on: jimpy (Plp1 jimpy) mouse iPSC-derived oligodendrocyte progenitor cells
Experiment: total cell number (DAPI+ nuclei) relative to DMSO vehicle control (SDs above negative control mean); higher = more surviving cells
Details: 10 µM; 3 days

SMILES | total cell number
COc1cc2nccc(Oc3ccc(NC(=O)C4(C(=O)Nc5ccc(F)cc5)CC4)cc3)c2cc1OC | -20
CN1CCN(c2nc3cc(C(F)(F)F)ccc3n3cccc23)CC1 | -5.92
O=C(O)/C=C/c1ccc(Cn2ccnc2)cc1 [Ozagrel] | -1.42
O=C(O)/C=C/c1ccc(Cn2ccnc2)cc1 [Ozagrel HCl] | -1.15
CCCc1nc(C)c2c(=O)nc(-c3cc(S(=O)(=O)N4CCN(CC)CC4)ccc3OCC)[nH]n12 [Vardenafil HCl Trihydrate] | 1.13
CNC(=O)c1cc(COc2nnc(Nc3ccc(Cl)cc3)c3ccoc23)ccn1 [Telatinib] | -3.45
O=c1c(-c2ccc(O)cc2)coc2c([C@@H]3O[C@H](CO)[C@@H](O)[C@H](O)[C@H]3O)c(O)ccc12 [Puerarin] | -0.0751
CCn1nc(C(=O)O)c(=O)c2cc3c(cc21)OCO3 [Cinoxacin] | -1.01
Cc1cc([C@@H](C)Nc2ccccc2C(=O)O)c2nc(N3CCOCC3)cc(=O)n2c1 | -11.1
COCCOC(=O)C1=C(C)NC(C)=C(C(=O)OC/C=C/c2ccccc2)C1c1cccc([N+](=O)[O-])c1 (stereo unspecified) [Cilnidipine] | 0.0887 ± 0.53
CCOc1nc2cccc(C(=O)O)c2n1Cc1ccc(-c2ccccc2-c2noc(=O)[nH]2)cc1 [Azilsartan] | 0.00459
O=C(c1cn(Cc2cncn2Cc2ccc(Br)cc2)cc1-c1cccc2ccccc12)N1CCOCC1 | -9.47
CCN1CCN(C(=O)N[C@@H](C(=O)N[C@@H]2C(=O)N3C(C(=O)O)=C(CSc4nnnn4C)CS[C@H]23)c2ccc(O)cc2)C(=O)C1=O [Cefoperazone] | -12
CC(C)(Cc1ccc2ccccc2c1)NC[C@@H](O)COc1cccc(Cl)c1C#N | -11
CN(C)CCOc1ccc(/C(=C(/CCCl)c2ccccc2)c2ccccc2)cc1 [Toremifene Citrate] | -9.22
O=C(NCCO[N+](=O)[O-])c1cccnc1 [Nicorandil] | -1.29
Cc1ccc(Cl)c(Nc2ccccc2C(=O)O)c1Cl [Meclofenamic acid sodium] | 0.116
CC1=Nc2ccc(Cl)cc2S(=O)(=O)N1 [Diazoxide] | 1.43
Cc1cc(Nc2ncnc3ccc(-c4ccc(CNCCS(C)(=O)=O)o4)cc23)ccc1Oc1ccn2ncnc2c1 [HER2-Inhibitor-1] | -8.63
Oc1ccc(OCc2ccccc2)cc1 [Monobenzone] | -5.22
C[C@H]1C[C@H]2[C@@H]3CCC4=CC(=O)C=C[C@]4(C)[C@@]3(F)[C@@H](O)C[C@]2(C)[C@@]1(O)C(=O)CO [Betamethasone] | 4.38 ± 6.5
CCCn1c(=O)c2c(ncn2C)n(CCC)c1=O [1,3-Dipropyl-7-methylxanthine] | -0.342
CNC(=O)[C@H](Cc1c[nH]c2ccccc12)NC(=O)[C@@H](CC(=O)NO)CC(C)C [Ilomastat (GM6001, Galardin)] | -2.79
CN(C)c1ccc(/C=C2/C(=O)Nc3ccccc32)cc1 | -0.0867
Cc1nnc(NS(=O)(=O)c2ccc(N)cc2)s1 [Sulfamethizole] | 0.634
CCN1CCN(c2cc3c(cc2F)c(=O)c(C(=O)O)cn3C2CC2)CC1 [Enrofloxacin] | -0.411

SMILES | total cell number
FC(F)c1nc2ccccc2n1-c1nc(N2CCOCC2)nc(N2CCOCC2)n1 | -22.1
COc1cc(NS(C)(=O)=O)ccc1Nc1c2ccccc2nc2ccccc12 [Amsacrine hydrochloride] | -12.2
Nc1nc(=O)c(Br)c(-c2ccccc2)[nH]1 [Bropirimine] | -2.59
COc1ccccc1S(=O)(=O)Nc1ccc2c(c1)CN(C)C(=O)N2 | -15.3
O=C(O)CCCc1ccccc1 [Sodium Phenylbutyrate] | -0.928
CC(C)NCC(O)COc1ccc(CC(N)=O)cc1 (racemic) [(±)-Atenolol] | -1.2
Cc1cnc(NC(=O)C2=C(O)c3ccccc3S(=O)(=O)N2C)s1 [Meloxicam] | -3.22
Cc1cnc(NC(=O)C2=C(O)c3ccccc3S(=O)(=O)N2C)s1 [Meloxicam sodium] | -1.34
N=C(N)SCCc1c[nH]cn1 [Imetit dihydrobromide] | -1.1
CC1(C)O[C@@H]2C[C@H]3[C@@H]4CCC5=CC(=O)C=C[C@]5(C)[C@@]4(F)[C@@H](O)C[C@]3(C)[C@]2(C(=O)CO)O1 [Triamcinolone Acetonide] | 3.31
C[C@@H]1C[C@H]2[C@@H]3CCC4=CC(=O)C=C[C@]4(C)[C@@]3(F)[C@@H](O)C[C@]2(C)[C@@]1(O)C(=O)CO [Dexamethasone (DHAP)] | 6.45
OC1(c2ccc(Cl)c(C(F)(F)F)c2)CCN(CCCC(c2ccc(F)cc2)c2ccc(F)cc2)CC1 [Penfluridol] | -16.2
NCC(O)c1ccc(O)c(O)c1 (racemic) [(±)-Norepinephrine (+)bitartrate] | 0.169
NC(CCCP(=O)(O)O)C(=O)O (racemic) [(±)-2-Amino-5-phosphonopentanoic acid] | 0.12
CCOC(=O)[C@H](CCc1ccccc1)N[C@H]1CCc2ccccc2N(CC(=O)O)C1=O [Benazepril HCl] | 0.414
O=C(Nc1c[nH]nc1-c1nc2ccc(CN3CCOCC3)cc2[nH]1)NC1CC1 | -22.6
Cn1c(=O)c(-c2c(Cl)cccc2Cl)cc2cnc(Nc3ccc(N4CCOCC4)cc3)nc21 | -9.85
Fc1ccc(C(OCCCc2cnc[nH]2)c2ccc(F)cc2)cc1 | -1.91
O=C1CCC(c2ccc(-n3ccnc3)cc2)=NN1 [Imazodan] | -0.785
C=CCN1CCc2cc(O)c(O)cc2C(c2ccccc2)C1 (racemic) | -1.7
COC1=C(OC)C(=O)C(CCCCCCCCCCO)=C(C)C1=O [Idebenone] | 4.47
Cc1cc2nc(NCCCO)n(CC(=O)c3cc(C(C)(C)C)c(O)c(C(C)(C)C)c3)c2cc1C | -4.84
O=C(Nc1cccc2c(=O)cc(-c3nnn[nH]3)oc12)c1ccc(OCCCCc2ccccc2)cc1 [Pranlukast] | -1.51
c1ccc2c(c1)CCC[C@H]2Nc1nc2ccccc2[nH]1 [NS8593 hydrochloride] | -3.1
Cc1ccc(C(=O)Nc2ccc(CN3CCN(C)CC3)c(C(F)(F)F)c2)cc1C#Cc1cnc2cccnn12 | -17.8
